# According to PubChem BioAssay AID1477 (National Center for Advancing Translational Sciences (NCATS), 2009):
# Among all 230,000 compounds or so, fewer than 10 were called active. This list was built around the results that the source calls inconclusive (neither active nor inactive); the mix of calls is not that of the screen. Calls come from the whole dose curve; as a rule, active = well fitted curve in the direction sought with a large enough effect; inconclusive = small, poorly fitted or top-dose-only effect, or effect the other way, or another doubt; inactive = no such curve, though single readings can be large or run the other way. No potency is given beside an inconclusive call; the fits are too rough.
# Molecular target: Runt-related transcription factor 1 (Homo sapiens) + Core-binding factor subunit beta (Homo sapiens) (UniProt Q01196+Q13951)
# Test: qHTS Assay for Compounds Blocking the Interaction Between CBF-beta and RUNX1 for the Treatment of Acute Myeloid Leukemia
# Conditions: AlphaScreen CBFb-His/RUNX1-biotin binding, biochemical; series mostly up to 59.8 µM
# Summary of the method: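 Interaction loss through any mechanism counts as activity. Pre-formed complex of His-CBF-beta and biotin-RUNX1 (30 nM apiece) is incubated with compound 15 min, then with 50 ng nickel and 50 ng streptavidin beads for 90 min before AlphaScreen detection.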
# Chain of UniProt Q01196 (Q01196 whole entry, looked up): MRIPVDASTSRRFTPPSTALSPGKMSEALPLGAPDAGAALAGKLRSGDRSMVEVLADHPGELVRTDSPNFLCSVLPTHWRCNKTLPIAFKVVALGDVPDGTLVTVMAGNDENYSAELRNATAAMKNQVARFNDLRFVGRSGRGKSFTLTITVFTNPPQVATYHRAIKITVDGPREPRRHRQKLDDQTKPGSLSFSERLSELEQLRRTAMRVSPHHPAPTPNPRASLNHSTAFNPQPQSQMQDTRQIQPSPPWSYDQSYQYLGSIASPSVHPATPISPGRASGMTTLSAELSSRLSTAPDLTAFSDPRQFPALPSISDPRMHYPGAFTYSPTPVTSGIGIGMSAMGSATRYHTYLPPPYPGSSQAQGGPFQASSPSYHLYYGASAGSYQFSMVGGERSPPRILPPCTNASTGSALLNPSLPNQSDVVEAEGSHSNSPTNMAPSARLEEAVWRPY
# Chain of UniProt Q01196 (Q13951 whole entry, looked up): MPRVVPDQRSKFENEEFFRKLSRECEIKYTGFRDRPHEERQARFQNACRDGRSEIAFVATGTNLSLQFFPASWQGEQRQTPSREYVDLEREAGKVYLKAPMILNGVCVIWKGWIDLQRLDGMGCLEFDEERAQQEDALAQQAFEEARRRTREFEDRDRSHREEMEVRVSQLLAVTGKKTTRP
row,SMILES,Potency
1,CC(C)(C)c1ccc(OCC(O)CSc2ncn[nH]2)cc1 (centres undefined),inactive
2,COc1ccc2c(c1)C(c1ccc3c(c1)OCO3)CC(=O)O2 (centres undefined),inactive
3,Cc1ccccc1NCC(=O)N/N=C\C=C\c1cccc([N+](=O)[O-])c1,"inconclusive [inhibitor, partial curve]"
4,CCN(CC)S(=O)(=O)c1cc(NC(=O)Cn2ncc(Cl)c(Cl)c2=O)ccc1C,"inconclusive [inhibitor, partial curve]"
5,O=C1NC(c2ccc(Cl)c([N+](=O)[O-])c2)Nc2ccccc21 (centres undefined),inactive
6,O=C(CCN1CCCCCC1)Nc1cccc(Cl)c1,inactive
7,CCCCCOc1ccc(C)cc1CN(CCCl)CCCl,inactive
8,Cc1cc(C)cc(Oc2nc(-c3ccccc3)cc(C)c2S(C)(=O)=O)c1,"inconclusive [activator, partial curve]"
9,O=C(NCc1ccccc1Cl)c1csc2c1CCCCC2,"inconclusive [inhibitor, single point]"
10,Cc1ccc(N=Cc2sc(O)c3ccccc23)cc1,"inconclusive [activator, partial curve]"
11,O=C(O)CCC(=O)Nc1ccc(N2CCOCC2)cc1,"inconclusive [inhibitor, single point]"
12,COc1cc2nc(Cl)nc(N3CCN(C)CC3)c2cc1OC,inactive
13,CC1=Nc2cccc3cccc(c23)N1C,"inconclusive [activator, single point]"
14,Oc1ccc2ccccc2c1C=Nc1ccc(N2CCOCC2)cc1,inactive
15,COc1cc(C2CC(=O)Oc3ccc(O)cc32)cc(OC)c1OC (centres undefined),"inconclusive [inhibitor, single point]"
16,CCC(=O)Nc1ccc(Nc2nc(C)c([N+](=O)[O-])c(Nc3ccc(NC(=O)CC)cc3)n2)cc1,"inconclusive [activator, single point]"
17,Cc1ccc(S(=O)(=O)NC2=C(N3CCN(c4ccccc4F)CC3)C(=O)c3ccccc3C2=O)cc1,"inconclusive [inhibitor, single point]"
18,COc1ccccc1CN=c1c([N+](=O)[O-])nn(-c2ccc3c(c2)OCCO3)n1O,"inconclusive [inhibitor, single point]"
19,Cc1cc(C)c(/C([O-])=C(/C(=S)Nc2ccc(SC(F)F)cc2)[n+]2ccccc2)cc1C,"inconclusive [inhibitor, single point]"
20,O=C(Nc1nnc(C2COc3ccccc3O2)o1)c1ccc(F)cc1 (centres undefined),"inconclusive [inhibitor, single point]"
21,CC(C)(C)OC(=O)NCCCC[C@H](NC(=O)c1nc[nH]c1C(=O)N1CCN(c2ccccc2)CC1)C(=O)OC(C)(C)C,inactive
22,Cc1cc(=O)n2[nH]c(-c3sccc3-n3c(C)ccc3C)cc2n1,"inconclusive [activator, partial curve]"

row,SMILES,Potency
1,Oc1ccc(N=Cc2ccc(-c3cccs3)s2)cc1,"inconclusive [inhibitor, single point]"
2,Nc1cc(-c2ccc(Cl)cc2)nn1S(=O)(=O)c1cccc2nsnc12,"inconclusive [inhibitor, single point]"
3,O=C(O)CNS(=O)(=O)c1ccc(Br)s1,inactive
4,COc1ccc(-c2cc(C(F)(F)F)nc(SCC(=O)Nc3sc4c(c3C#N)CCC4)n2)cc1,inactive
5,O=C(NC(=S)Nc1nc(-c2ccccc2)cs1)c1cccnc1,inactive
6,O=P1(O)OP(=O)(O)OP(=O)(O)O1.[Al],"inconclusive [activator, single point]"
7,O=C(Nc1ccccc1N1CCCCC1)c1ccccc1F,"inconclusive [activator, partial curve]"
8,Cc1ccccc1-c1n[nH]c(=S)n1/N=C/C=C/c1ccco1,"inconclusive [inhibitor, single point]"
9,O=C(NCc1ccco1)c1cc2ccccc2c(=O)o1,"inconclusive [inhibitor, single point]"
10,O=C1NC(=O)N(Cc2ccc(F)cc2)C(=O)/C1=C\c1ccoc1,"inconclusive [inhibitor, single point]"
11,O=C(c1ccc(S(=O)(=O)c2cccc(Cl)c2)c([N+](=O)[O-])c1)N1CCN(Cc2ccccc2)CC1,"inconclusive [inhibitor, single point]"
12,O=[N+]([O-])c1ccccc1NCc1ccc(Cl)cc1,"inconclusive [inhibitor, single point]"
13,O=C(c1ccc2nc(-c3ccco3)c(-c3ccco3)nc2c1)N1CCC2(CC1)OCCO2,"inconclusive [inhibitor, single point]"
14,CC(C)Cn1c(/C=C/c2ccccc2)nc2ccccc21,"inconclusive [activator, single point]"
15,Cc1ccccc1NC(=O)CN1C(=O)N/C(=C\c2cccn2-c2cccc(C(=O)O)c2)C1=O,"inconclusive [inhibitor, partial curve]"
16,COc1ccc(-c2ccc(/C=N/N3C(=O)C4C5C=CC(C6CC56)C4C3=O)o2)c([N+](=O)[O-])c1 (centres undefined),"inconclusive [inhibitor, single point]"
17,Cc1c(CCOC(=O)c2cc([N+](=O)[O-])cc([N+](=O)[O-])c2)sc[n+]1CC(=O)c1ccc(Br)cc1,"inconclusive [inhibitor, partial curve]"
18,C=CCN=c1scc(-c2ccc(F)cc2)n1/N=C/c1ccccn1,"inconclusive [inhibitor, single point]"
19,NC(=S)N/N=C/c1ccccc1O,"inconclusive [inhibitor, partial curve]"
20,Cc1ccccc1OCC(=O)O/N=C(\N)Cc1cccs1,"inconclusive [activator, partial curve]"
21,Cc1ccc(C(=O)NCC(=O)OCC(=O)c2c(N)n(C)c(=O)n(C)c2=O)s1,inactive
22,CCN(CC)S(=O)(=O)c1ccc(-c2cc(C(=O)OC)sc2C(F)(F)F)cc1,"inconclusive [activator, partial curve]"
